Measurements published in ChEMBL document CHEMBL4888484, “Replenishing the malaria drug discovery pipeline: Screening and hit evaluation of the MMV Hit Generation Library 1 (HGL1) against asexual blood stage Plasmodium falciparum ,using a nano luciferase reporter read-out” (2022).
In all, about 150,000 compounds went through this assay and about 540 (0.36%) showed an effect of 50% or more. Some of the results follow.

Test system: Plasmodium falciparum
Assay: Primary screen in NF54 nanoGlo assay, in single point, at 2uM, 72h; a lower Z score goes with more inhibition
Type: functional, Erythrocyte
Details: timepoint 72 hour

Structure (SMILES)	% Inhibition	Z score
O=C(NCc1cc(C2CC2)ncn1)c1ccccc1Br	-8%	1.68
Cc1nscc1C(=O)NC1CCC(Oc2ccccc2C#N)CC1 (stereo not given)	-11%	1.5
COc1ccc(CC(=O)N2CCC[C@H]2c2nc3cc(-c4ccccc4F)ccc3o2)cc1	1%	-0.23
Cc1cccc(Cl)c1S(=O)(=O)NCc1ocnc1C	-13%	2.37
COc1nn(C)cc1NC(=O)N[C@H]1CCO[C@@H]1c1c(C)nn(C)c1C	-11%	1.82
Cc1cc(C)cc(Nc2nc(C)cc(=O)n2CC(=O)N2CCc3ccccc32)c1	-7%	1.02
COCC(=O)N1CCC2(CC1)O[C@@H](CC(=O)NC1CCCC1)Cc1ccccc12	-10%	1.26
CC(=O)N1CCN(Cc2cccc(NC(=O)c3ccsc3)n2)CC1	-1%	0.16
CCn1c(C(=O)NCCC2=CCCCC2)c(N2CCCC2=O)c2cc(OC)ccc21	-6%	0.96
CN(C)c1ccc(C(=O)N[C@H]2CCN(c3ccc(F)cc3)C2=O)cc1	0%	0.04
CCNC(=O)N1CCC[C@H]1c1cc(C(C)C)no1	8%	-1.12
COc1ccc(OC)c(C2CC2C(=O)N(C)Cc2c(C)noc2C)c1 (stereo not given)	-16%	1.68
CCCc1n[nH]cc1C(=O)N1CC(=O)N(c2ccc(Cl)cc2)C[C@@H]1C	-10%	1.42
CN1CCC2(CCCN2C(=O)c2cccc(S(=O)(=O)N3CCCC3)c2)CC1	-2%	0.33
COC(C)(C)c1cn(Cc2cnc(C)s2)nn1	-6%	0.97
Cc1nc(C(=O)N2C[C@@H](N(C)C)CCc3cc(Br)ccc32)co1	2%	-0.28
c1ccc(C2(c3nc([C@H]4CN5CCC[C@H]5CO4)no3)CCCO2)cc1 (stereo not given in full)	-7%	0.87
Cc1cccc(-c2ccc(CN(C(=O)Nc3ccc(C(F)(F)F)cc3)C(C)C)s2)c1	2%	-0.25
c1coc(-c2cc(COc3ccc4c(c3)CCC4)no2)c1	-3%	0.3
CN(C)c1ccc(C(=O)Nc2ccc3c(c2)OCCCO3)cc1	-20%	2.06
CN(C)C(=O)c1ccc(CNC(=O)[C@@H](c2ccccc2F)N(C)C)o1	-10%	1.88
CN(C)c1cnc(C(=O)N2CCC[C@H]2C2CCOCC2)cn1	-3%	0.41

Structure (SMILES)	% Inhibition	Z score
COc1cnccc1[C@H](C)NC(=O)c1cc(F)cc2nc(C)c(C)nc12	3%	-0.31
O=C(NCc1ncc(Br)cn1)[C@@H]1CCc2cccc(O)c21	-5%	0.84
Cc1ccc(CCC(=O)NC(c2ccccc2)C(C)C(=O)O)o1 (stereo not given)	5%	-0.67
CCn1nc(C)c(-c2ccc(C(=O)N3CCCN4CCC[C@H]4C3)cc2)c1C	-12%	1.46
Cc1ccc(NC(=O)c2cccc(OCC(F)F)n2)c(O)n1	10%	-1.13
CC(C)[C@@H](CO)NC(=O)[C@H](NC(=O)C(c1ccccc1)c1ccccc1)c1ccccc1	-3%	0.42
CN(C)c1ccc(C(=O)N2CCCN(C3CCOCC3)CC2)cc1	-9%	1.25
COc1ccc2c(c1)CN(C(=O)C1CCCC1)CC[C@H]1COC(=O)N21	3%	-0.48
Cc1cscc1C(=O)N1CCN(C)Cc2ccccc21	-15%	3.07
COC[C@@H](O)CNC(=O)Nc1cc(N(C)C)n2nc(C)cc2n1	-5%	0.62
Cc1cccc(N(C)C(=O)c2ccc3c(=O)n4c(nc3c2)CCCCCC4)n1	-4%	0.67
Cc1cnn(C2CCCC2)c1NC(=O)N1CCO[C@H](C(N)=O)C1	-6%	1.25
Cc1noc([C@H]2CCN(C(=O)NCCc3ccccc3)C[C@H]2NC(=O)C2CCOCC2)n1	-12%	1.47
O=C(c1cncc(-n2ccnn2)c1)N1CC(N2CCCC2=O)C1	6%	-0.92
CCNC(=O)c1nn(Cc2ccccc2)c2c1C[C@@H](N1CCCC1)CC2	-11%	1.41
Cc1nc(CC(=O)Nc2cc([C@H]3CCCOC3)nn2C)c(C)s1	-7%	1.07
CN(CC1CCCCC1)C(=O)C1CCC1	-8%	0.85
COc1ccc(OCc2cc(C(=O)NCc3ccncn3)n[nH]2)c(Cl)c1	-4%	0.49
Cc1ccc2ccc(S(=O)(=O)n3ccnc3)cc2c1	-9%	1.64
CC(=O)N1CCCN(C(=O)Cn2c(C3CC3)nc3ccccc32)CC1	1%	-0.21
N#Cc1ccc(NC(=O)CN2c3ccc(Br)cc3CS2(=O)=O)cc1	-11%	1.52
CC1CCCC(C)N1C(=O)CN(CCO)C1CCCCC1 (stereo not given)	-4%	0.39

Structure (SMILES)	% Inhibition	Z score
CC(C1Cc2ccccc2O1)N(C)Cc1cccn(C(F)F)c1=O (stereo not given)	1%	-0.11
CC(C)(C)c1cc(=O)n(Cc2c(F)cccc2F)cn1	5%	-0.88
NS(=O)(=O)c1ccc(F)c(C(F)(F)F)c1	-5%	0.53
COc1ccc(C(=O)N[C@H](C(=O)NCC(C)C)C2CCN(C(C)=O)CC2)cc1	0%	0.02
COc1cccc(-c2ccc(N3CCCN(C(=O)CN(Cc4ccccc4)C(=O)C(C)C)CC3)nn2)c1	-3%	0.45
Cc1cc(C(=O)N2Cc3cnc(N4CCOCC4)nc3C2)c(C)o1	-12%	2.23
O=C(NC1CCCCC1)c1ccc(NC(=O)c2nc[nH]n2)cc1	6%	-1.04
O=C(C[C@H](c1ccccc1F)c1c[nH]c2ccc(Cl)cc12)NCc1ccccc1	1%	-0.11
Cc1ccncc1C(=O)N1CCC(CCc2noc(N(C)C)n2)CC1	3%	-0.53
Cn1cccc1C(=O)N1CCc2nn(Cc3ccccc3)c(=O)n2CC1	-10%	1.11
COc1ccc(-c2noc(N(C)CC(=O)Nc3cccc(Cl)c3)n2)cc1	-3%	0.4
CC1CC(NCCOc2ccc(Br)cc2)CN1C1CC1 (stereo not given)	-7%	0.85
c1cnc2cc(OCCOCCOCCOCCOc3ccc4cccnc4c3)ccc2c1	9%	-1.39
CCc1nn(-c2ccc(OC)cc2)c(Oc2ccccc2C)c1CCC(=O)Nc1ccc(F)cc1	16%	-2.76
CC(C)(C)NC(=O)N(CC(=O)Nc1nc(-c2ccccc2)cn1-c1ccc(F)cc1)Cc1ccccc1	-1%	0.13
CCc1c(C)sc2ncnc(-c3ccc(S(C)(=O)=O)cc3)c12	14%	-1.77
CCc1nnc(CNC(=O)c2cnc(C)cn2)s1	-4%	0.8
CCC(C)N(C(=O)Nc1ccc(F)cc1)C(C)CC (stereo not given)	4%	-0.57
C=CCNC(=O)c1cccc(Br)c1	1%	-0.12
COc1cc2c(cc1OC)C(c1cccc(C(F)(F)F)c1)N(C(=O)C(C)Oc1ccccc1)CC2 (stereo not given)	-6%	0.78
CCn1c(CCc2ccc(NC(=O)c3n[nH]c4c3CCc3cc(OC)ccc3-4)cc2)nc2ccccc21	-10%	0.96
O=C(CN1CCCC1=O)N[C@@H](C1CCCC1)C(F)(F)F	-4%	0.42

Structure (SMILES)	% Inhibition	Z score
O=C(C(c1ccccc1)c1ccccc1)N1CCc2cc(-c3ccncc3)ccc21	-4%	0.82
Cc1cc(CNc2cc(C3CC3)ncn2)n(C)n1	-3%	0.34
C[C@H](Cc1cn(C)nn1)Nc1ccc(C(F)(F)F)cn1	-11%	1.2
CC(C)C1(NC(=O)Cc2c[nH]c3cc(F)ccc23)CC1	0%	-0.02
CN(C[C@H]1CCOC1)C(=O)c1ccco1	2%	-0.28
COCC1(F)CCN(Cc2c(-c3cc(C)ccc3C)nc3cc(C)ccn23)CC1	-4%	0.56
CN(Cc1ccsc1)C(=O)CNCCn1cccn1	-6%	1.06
Cc1ccc(C(=O)N2CCc3onc(-c4cccc5ccccc45)c3C2)cc1	-5%	0.75
COc1cc(CC(=O)NCC2(N(C)CCO)CCCCC2)ccc1C	-14%	1.44
CC(C)N(C)c1ccc(NC(=O)C2=NN(C)C(=O)CC2)cc1F	30%	-4.05
O=C(Cc1noc2ccccc12)N1CCCO1	-6%	0.67
O=C(NC1CC2CC2C1)NC1CC2CCC1O2 (stereo not given)	1%	-0.11
COc1ccc(NS(=O)(=O)c2ccc(-c3cnc(C4CC4)o3)s2)cc1	4%	-0.46
CCOC(=O)N1CCN([C@H]2CCc3ccc(F)cc32)CC1	-11%	1.16
c1ccc(-c2ncn(Cc3cn[nH]c3-c3cccs3)c2[C@H]2CCOC2)cc1	-17%	1.7
CC(C)C[C@H]1COCCN1CC(N)=O	-5%	0.75
Cc1ccc2nc(-c3ccco3)nc(N3CCN(C(=O)Nc4ccc(C(C)C)cc4)CC3)c2c1	-7%	1.01
Cc1cccc(Cl)c1CN1CCO[C@H](C2CC2)C1	-5%	0.43
CN(CC1=CCCOC1)C(=O)NC[C@H]1CCCN(c2nccn3cnnc23)C1	-1%	0.19
